The source of these data is article PMC4336329 (PLoS ONE, 2015).

The campaign covered roughly 310,000 compounds. About 2,200 (0.71%) showed an effect of 50% or more. The effect is printed as a negative number. The list shows a part of the results.

For this test, the target named is human ether-à-go-go-related gene (hERG) potassium channel (human, UniProt Q12809). In words: primary screen, population patch clamp on CHO cells stably expressing hERG.
Chain of human ether-à-go-go-related gene (hERG) potassium channel (Q12809 whole entry, looked up): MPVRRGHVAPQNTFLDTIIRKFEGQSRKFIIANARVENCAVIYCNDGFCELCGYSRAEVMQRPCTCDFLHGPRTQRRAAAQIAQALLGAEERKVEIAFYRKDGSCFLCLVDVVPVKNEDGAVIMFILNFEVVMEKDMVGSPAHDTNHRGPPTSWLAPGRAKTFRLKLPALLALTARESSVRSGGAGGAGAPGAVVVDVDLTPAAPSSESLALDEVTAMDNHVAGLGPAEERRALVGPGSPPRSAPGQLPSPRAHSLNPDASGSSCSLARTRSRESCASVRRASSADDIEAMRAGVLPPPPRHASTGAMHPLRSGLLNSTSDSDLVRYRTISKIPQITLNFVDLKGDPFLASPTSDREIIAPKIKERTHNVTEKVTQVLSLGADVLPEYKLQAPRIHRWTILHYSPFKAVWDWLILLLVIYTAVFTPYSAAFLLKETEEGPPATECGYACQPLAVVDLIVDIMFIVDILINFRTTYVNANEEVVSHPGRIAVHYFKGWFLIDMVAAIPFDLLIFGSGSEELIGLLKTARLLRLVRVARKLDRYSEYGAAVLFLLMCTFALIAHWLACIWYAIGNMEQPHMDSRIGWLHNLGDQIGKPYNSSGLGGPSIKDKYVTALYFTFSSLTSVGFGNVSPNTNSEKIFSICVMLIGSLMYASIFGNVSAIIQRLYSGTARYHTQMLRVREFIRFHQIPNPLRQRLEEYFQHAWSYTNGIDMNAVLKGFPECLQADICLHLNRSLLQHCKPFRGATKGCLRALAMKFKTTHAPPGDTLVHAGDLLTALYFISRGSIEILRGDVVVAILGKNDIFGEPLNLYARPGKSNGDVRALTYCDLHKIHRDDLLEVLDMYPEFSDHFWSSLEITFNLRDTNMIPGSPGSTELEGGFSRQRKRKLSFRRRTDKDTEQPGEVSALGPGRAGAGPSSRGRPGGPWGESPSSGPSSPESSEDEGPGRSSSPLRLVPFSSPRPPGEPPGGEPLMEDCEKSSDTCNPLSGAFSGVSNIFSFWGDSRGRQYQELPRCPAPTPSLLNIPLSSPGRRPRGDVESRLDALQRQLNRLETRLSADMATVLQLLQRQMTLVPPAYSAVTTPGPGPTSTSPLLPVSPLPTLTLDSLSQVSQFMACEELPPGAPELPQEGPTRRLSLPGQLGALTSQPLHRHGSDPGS
For the compound `CC1CCC2(CC1)C(Nc1cccc(Cl)c1)=NC(=S)N2CC#N` (stereo not shown), the “hERG current change (%, negative = inhibition) at 1uM” value is 13.4%.
The figure for `COc1cccc(-c2nc(CSCC(=O)N3CCc4ccccc43)c(C)o2)c1` is 7.95%; for `CCCCCCCOc1ccc(-c2ccc(C#N)cn2)cc1` it is 4.27%.
For `CN(C)CC1CCCCC1C1(O)c2ccccc2CSc2sccc21` (stereo not shown) the value was 4.1%; for `O=C(c1cc2c(s1)-c1ccccc1OC2)N1CCN(c2ccccn2)CC1`, -0.51%; for `CCC(=O)c1ccc(N2CCN(C(=O)COc3ccccc3F)CC2)c(F)c1`, -19.1%.
The figure for `CCOC(=O)N1CCC(NC(=O)c2cc(COc3c(C)cccc3C)on2)CC1` is -3.61%.
In the case of `O=C(NCc1ccc2c(c1)OCO2)c1cc(=O)[nH]c2ccccc12`, the “hERG current change (%, negative = inhibition) at 1uM” value is given as 12.4%.
With `COc1ccccc1CNC(=O)Cn1cccc1C(=O)c1ccccc1`, the “hERG current change (%, negative = inhibition) at 1uM” value was 14.4%.
Turning to `Cc1nc2ccc(S(=O)(=O)NC(C(=O)NCc3ccc4c(c3)OCO4)C(C)C)cc2s1` (stereo not shown), the “hERG current change (%, negative = inhibition) at 1uM” value is on record as 13.5%.
On to `N#Cc1ccc(OCc2nnc(-c3ccc([N+](=O)[O-])cc3)o2)cc1`, for which the “hERG current change (%, negative = inhibition) at 1uM” value is -10.9%.
For the compound `Cc1cccc(OCCCCCn2ccnc2)c1C`, the “hERG current change (%, negative = inhibition) at 1uM” value stood at 2.78%.
For `CCCCOc1ccc(Cc2c(COCC)[nH]c(=S)[nH]c2=O)cc1` the value was 13%.
For `O=C(COc1ccccc1Cl)Nc1cccnc1` the value was -1.57%; for `COCCn1c(SCC(=O)NCc2ccccc2)nc2ccccc21`, 8.71%.
For `CS(=O)(=O)N1CCCC(C(=O)Nc2ccc(F)cc2)C1` (stereo not shown) the value was 13.8%; for `COc1cc(NC(=O)CCCC(=O)OCC(F)(F)C(F)F)nc(OC)n1`, 5.08%.
Turning to `O=C(N/N=C\c1cccnc1)c1cc(-c2ccc(Cl)s2)[nH]n1`, the “hERG current change (%, negative = inhibition) at 1uM” value was 8.22%.
For `COc1ccc(S(=O)(=O)N2CCOCC2)cc1NC(=O)Cc1ccccc1Cl` the value was 9.04%; for `COCC1CCCN(C(=O)c2ccc3oc(Cc4ccc(Cl)cc4)nc3c2)C1` (stereo not shown), 5.51%; for `Cn1c(SCC(=O)N2c3ccccc3CCc3ccccc32)nnc1-c1cc2ccccc2cc1O`, 9.91%.
For `Cc1ccc(C(C)C)cc1OCCOCCN1CCCC1` the value was -1.76%; for `O=C1CC(SC(=Nc2ccccc2)Nc2ccccc2)C(=O)N1c1cccc2ccccc12` (stereo not shown), 14.8%; for `CCN1C(=O)C2C(C1=O)N1C(c3cccs3)C3C(=O)N(CC)C(=O)C3N1C2c1cccs1` (stereo not shown), 12.4%.
As for `O=C(C1CCN(c2nnc(-n3cccc3)s2)CC1)N1CCOCC1`, the “hERG current change (%, negative = inhibition) at 1uM” value is reported as -2.26%.
For `CCOc1ccccc1CN1C(=O)c2ccccc2C1C(=O)NCC1CCCO1` (stereo not shown) the value was 4.32%; for `CCOC(=O)Cc1csc(NC(=O)C(C)(C)CC)n1`, 9.85%; for `O=c1c2cc3c(cc2[nH]c(=S)n1Cc1ccco1)OCO3`, 13.5%.
On to `Cc1cc(Nc2cccc(F)c2)n2nc(C)nc2n1`, for which the “hERG current change (%, negative = inhibition) at 1uM” value is 3.86%.
As to `O=S(=O)(NCC(O)COCc1ccco1)c1cccs1` (stereo not shown), the “hERG current change (%, negative = inhibition) at 1uM” value is reported as 24.4%.
The figure for `Nc1c(C(=O)OCC2CCCO2)c2nc3ccccc3nc2n1-c1ccc2c(c1)OCCO2` (stereo not shown) is 11.8%.
On to `O=C(CN1C(=O)NC2(CCc3ccccc32)C1=O)c1ccc(F)c(F)c1` (stereo not shown), for which the “hERG current change (%, negative = inhibition) at 1uM” value amounted to 0.854%.
The figure for `CCOC(=O)c1c(NC(=O)NC(C)(C)C)sc2c1CCN(C)C2` is 3.53%; for `CSc1nc(N)nc(SCC(=O)C(C)(C)C)c1C#N` it is 4.52%; for `COc1ccc2[nH]c(C)c(CCNCc3cc(OC)c4c(c3)OCO4)c2c1.O=C(O)C(=O)O` it is 7.72%.
For `CCCN(C(=O)c1ccc(N2CCCC2=O)cc1)c1c(N)n(Cc2ccccc2)c(=O)[nH]c1=O` the value was 4.98%; for `Cc1cc(C)c(OCC(=O)OCC(=O)NNC(=O)c2ccccc2F)c(C)c1`, 16.1%; for `CN(CC(=O)Nc1cccc(F)c1)C(=O)CCN1C(=O)C2CC=CCC2C1=O` (stereo not shown), 8.97%.
The figure for `CC1(C(=O)Nc2ccc3c(c2)OCO3)CC1(Cl)Cl` (stereo not shown) is 15.2%; for `COc1ccc(C(=O)CSc2nccc(=O)[nH]2)cc1` it is -0.7%; for `COc1ccc(S(=O)(=O)N2CCc3ccccc32)cc1NC(C)=O` it is 11.3%.
For the compound `CN(C)/C=N/c1ncc(C(=O)OC(C)(C)C)s1`, the “hERG current change (%, negative = inhibition) at 1uM” value was -0.161%.
For `O=C(CC12CC3CC(CC(C3)C1)C2)N/N=C\c1ccc[nH]1` the value was 6.87%; for `CS(=O)(=O)Nc1ccc(C(=O)NCCC2=CCCCC2)cc1`, -30.9%.
The figure for `COc1ccccc1N1CCN(C(=O)CNC(=O)c2cn(-c3ccccc3OC)c(=O)c3ccccc23)CC1` is 4.27%.
For the compound `O=C(CSc1nccc(=O)[nH]1)Nc1ccc(Br)c(Cl)c1`, the “hERG current change (%, negative = inhibition) at 1uM” value came out at 19.7%.
The figure for `CC1(C)CC(NC(=O)COc2cc3oc(=O)c4c(c3cc2Cl)CCC4)CC(C)(C)N1` is 17.1%.
For `Cc1cccc(-c2noc(CN(C(=O)/C=C/c3ccccc3Cl)C(C)C)n2)c1` the value was 12.3%.
Take `CC(C)N1CCC(N2CCN(Cc3ccc(C#CC(C)(C)O)s3)CC2CCO)CC1` (stereo not shown): the “hERG current change (%, negative = inhibition) at 1uM” value is on record as 11.6%.
The figure for `CCn1c2ccccc2c2cc(NC(=O)c3cccc(OC)c3)ccc21` is 3.02%; for `COc1ccc(-c2nc3n(n2)C(c2ccccc2Cl)C(C(N)=O)=C(C)N3)cc1` (stereo not shown) it is -3.77%; for `CNS(=O)(=O)c1cc(NC(=O)CCNC(=O)c2ccco2)ccc1C` it is 12.5%.
For `O=c1c(C(c2ccc(Br)cc2)c2c(O)nc3n(c2=O)CCCS3)c(O)nc2n1CCCS2`, the “hERG current change (%, negative = inhibition) at 1uM” value turned out to be 14.1%.
For `CC/C=C/C(=O)N1CC2(CC(c3cccc(NC(=O)CC)c3)=NO2)C[C@H]1C(N)=O` (stereo partly shown) the value was 13.8%; for `Cc1nc2cc3sc(C)nc3cc2s1`, 13.7%.
With `Cc1cc([N+](=O)[O-])nn1CC(=O)NCCc1c[nH]c2ccccc12`, the “hERG current change (%, negative = inhibition) at 1uM” value came to 20.6%.
For `O=C(Nc1cccc2cccnc12)c1cccnc1` the value was 7.11%; for `O=C(N/N=C/C=C/c1ccco1)C(O)c1ccccc1` (stereo not shown), 13.4%.
For `CCOc1cc(/C=C\[N+](=O)[O-])ccc1OCC(=O)Nc1ccccc1C` the value was 6.9%; for `Nn1c(C2CCC2)nc2cc(Cl)ccc2c1=O`, 10.9%; for `Cc1nc(-c2ccccc2)nc(-c2ccccc2)n1`, 2.39%.
For `Cc1ccc(C)c(-n2nnnc2SCC(=O)c2c(N)n(C)c(=O)n(C)c2=O)c1` the value was 7.61%; for `CCOC(=O)NNC(=O)C12CC3CC(CC(C3)C1)C2`, 13.4%; for `O=C(CCCNC(=O)c1ccc(Cl)cc1)NCc1ccccc1Cl`, -1.33%.
Regarding `Cc1cc(C)cc(-c2nnc(SCC(=O)NC3CC3)o2)c1`, the “hERG current change (%, negative = inhibition) at 1uM” value stood at 0.448%.
Consider `CC(Sc1ncccn1)C(=O)NC1(C#N)CCCCC1` (stereo not shown), for which the “hERG current change (%, negative = inhibition) at 1uM” value is 14.1%.
The figure for `COc1ccc(CNC(=O)C2CCCN(c3nccc(C)n3)C2)cc1` (stereo not shown) is -3.39%.
The figure for `NNC(=S)NC1CCS(=O)(=O)C1` (stereo not shown) is 14.2%.
On to `Cc1cc(C)n(C(C)CNS(=O)(=O)c2ccc(C)c(C)c2)n1` (stereo not shown), for which the “hERG current change (%, negative = inhibition) at 1uM” value was found to be 16.3%.
For `COc1ccc(Cl)cc1NC(=O)C[n+]1ccccc1.[Cl-]` the value was 9.24%; for `COc1cccc(NC(=O)Cn2c(=O)n(CC3CCCO3)c(=O)c3ccccc32)c1` (stereo not shown), 11.5%.
Consider `CC(C)Oc1ccc(C(=O)NCCCNC(=O)c2ccccn2)cc1`, for which the “hERG current change (%, negative = inhibition) at 1uM” value worked out at 12.2%.
With `Cc1ccc(C)c(S(=O)(=O)N2CCCOC2CNC(=O)C(=O)NCc2ccccc2)c1` (stereo not shown), the “hERG current change (%, negative = inhibition) at 1uM” value is given as 14.1%.
As for `CC(C)c1ccc(NC2CCCN(C(=O)CC3CCCC3)C2)cc1` (stereo not shown), the “hERG current change (%, negative = inhibition) at 1uM” value was determined as 1.09%.
The figure for `Cc1ccc(CNC(=O)c2cc(Cl)cc(Cl)c2)n1C` is 2.27%.
For `O=CNC(n1cnc2c(N3CCOCC3)ncnc21)C(Cl)(Cl)Cl` (stereo not shown) the value was 9.52%.
For `COc1cc(C=O)ccc1OCc1cccc(Br)c1`, the “hERG current change (%, negative = inhibition) at 1uM” value was 6.9%.
In the case of `CC(C)(C)c1cc(CCC(=O)NNC(=S)NC(=O)c2ccccc2)cc(C(C)(C)C)c1O`, the “hERG current change (%, negative = inhibition) at 1uM” value is on record as 8.25%.
For `O=C1N2CCSC2=NC1(Nc1ccccn1)C(F)(F)F` (stereo not shown) the value was 9.13%; for `COc1cccc(CNC(=O)CSc2ccc(-c3ccccn3)nn2)c1`, 2.34%.
In the case of `Cc1cccc(N(C)S(=O)(=O)c2ccc(-c3cc(C)no3)s2)c1`, the “hERG current change (%, negative = inhibition) at 1uM” value is on record as 10.7%.
The figure for `Cc1ccc(N/C(N)=N/c2nc(CSc3ccccn3)cc(=O)[nH]2)c(C)c1` is 9.97%.
With `COc1ccc(CCNC(=O)CCNC(=O)c2ccco2)cc1OC`, the “hERG current change (%, negative = inhibition) at 1uM” value is given as 15.5%.
With `Cc1ccc(Nc2cc(C)c3ccc(O)cc3n2)cc1C.Cl`, the “hERG current change (%, negative = inhibition) at 1uM” value turned out to be 8.28%.
For `Cc1ccc(NS(=O)(=O)c2ccc(C)c(C(=O)NCC(c3ccccc3)N(C)C)c2)cc1` (stereo not shown) the value was -0.441%.
The figure for `CC(=O)c1ccc(NC(=S)Nc2ccc(Br)c(Cl)c2)cc1` is 13.3%; for `COc1cc(S(=O)(=O)NCc2ccncc2)ccc1Br` it is 10.8%; for `COc1cccc(NC(=O)NCCC2=CCCCC2)c1` it is -0.725%.
In the case of `CCCCNC(=O)CNC(=O)c1nn(-c2ccc(OC)cc2)c(=O)c2ccccc12`, the “hERG current change (%, negative = inhibition) at 1uM” value worked out at 7.19%.
For `O=C(COC(=O)c1ccc(Cl)c(Cl)c1)Nc1cccnc1Cl` the value was -0.005%; for `O=C(C1CCC(=O)N(C2CC2)C1)N1CCN(c2cccc(Cl)c2)CC1` (stereo not shown), 8.4%.
